PubChem BioAssay AID360 (National Center for Advancing Translational Sciences (NCATS), 2006)
About 550 (1.1%) of roughly 48,000 compounds were called active. About 4% were inconclusive and are not listed. Cut-off read from the data, not from the text of the source: active = potency below about 15 µM; inconclusive = mostly about 16 µM to 33 µM; inactive = weaker than that. This is one part of the list.

Molecular target: Lysosomal acid glucosylceramidase (Homo sapiens) (UniProt P04062)
Experiment: Glucocerebrosidase;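 note: the screen sought inhibitors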
Conditions: purified enzyme, resorufin glucoside fluorescence (screen aimed at inhibitors), 20 min
How it was run: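 Compounds titrated against 0.2 nM normal enzyme, 30 uM resorufin beta-D-glucopyranoside substrate, citrate/phosphate buffer with taurocholate and tween-20, pH 5.9. Reaction ran 20 min at room temperature; fluorescence (Ex 548/Em 600) gave AC50.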
Potency is the fitted concentration of half-maximal effect.

Chain of UniProt P04062 (P04062 whole entry, looked up): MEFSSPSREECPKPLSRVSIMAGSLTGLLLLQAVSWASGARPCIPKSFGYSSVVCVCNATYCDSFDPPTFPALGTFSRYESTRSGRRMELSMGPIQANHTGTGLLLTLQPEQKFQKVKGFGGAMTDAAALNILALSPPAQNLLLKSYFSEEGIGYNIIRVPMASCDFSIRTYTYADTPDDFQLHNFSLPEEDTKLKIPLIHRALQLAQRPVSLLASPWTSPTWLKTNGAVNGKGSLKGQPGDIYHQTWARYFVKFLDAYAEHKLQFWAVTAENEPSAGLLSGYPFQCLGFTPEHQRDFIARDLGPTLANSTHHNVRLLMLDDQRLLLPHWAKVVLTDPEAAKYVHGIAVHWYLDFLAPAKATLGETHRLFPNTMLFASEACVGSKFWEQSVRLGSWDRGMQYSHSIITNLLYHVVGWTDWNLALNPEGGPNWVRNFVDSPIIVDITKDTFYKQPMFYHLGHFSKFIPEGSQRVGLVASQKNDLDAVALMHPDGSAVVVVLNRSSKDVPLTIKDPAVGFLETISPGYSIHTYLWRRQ

Potency, inactive:
COC(=O)c1[nH]c2ccc(F)cc2c1NC(=O)C1=COCCO1 > 76.9 µM, CCN1C(=Nc2ccc(Cl)cc2)SC/C1=C\C(=O)OC > 76.9 µM, Cc1ccc(S(=O)(=O)c2n[nH]n3c2nc(=O)c2ccccc23)cc1 > 76.9 µM, Cc1nc2nc(C)c(CCC(=O)N3CCc4ccccc43)c(C)n2n1 > 76.9 µM, CC1CCCCN1C(=O)c1ccccc1NC(=O)c1ccco1 (stereo unspecified) > 76.9 µM, CSc1nc2sc3c(c2c(=O)n1C)CCC(C)C3 (stereo unspecified) > 76.9 µM, CCOC(=O)c1sc2nc(C)cc(C)c2c1NC(=O)c1ccco1 > 76.9 µM, O=S(=O)(Nc1ccc2c(c1)OCO2)c1ccc(Br)s1 > 76.9 µM, Cc1ccc(-n2nnnc2SCC(=O)N2c3ccccc3NC(=O)C2(C)C)cc1 > 76.9 µM, O=C(Cn1ncn2c(cc3ccccc32)c1=O)NCc1ccco1 > 76.9 µM, O=C(NCCOC(=O)c1ccc(S(=O)(=O)N2CCOCC2)cc1)c1cccnc1 > 76.9 µM, Cc1csc(N(C(=O)c2cccc(S(=O)(=O)N(C)C)c2)c2ccccc2)n1 > 76.9 µM, CC(=O)Nc1nc(SCCCc2ccccc2)n[nH]1 > 76.9 µM, Fc1ccc(NCc2cccnc2)cc1 > 76.9 µM, Cc1ccc(C2CC(C(F)(F)F)n3ncc(C(=O)NCc4ccco4)c3N2)cc1 (stereo unspecified) > 76.9 µM, CCOC(=O)N1CCC(NC(=O)C2CCC(Cn3c(=O)[nH]c4ccccc4c3=O)CC2)CC1 (stereo unspecified) > 76.9 µM, O=C(c1cc2c(s1)CCCCC2)N1CCN(c2ncccn2)CC1 > 76.9 µM, Cc1cc(NC(=O)c2cc3n(n2)C(C(F)(F)F)CC(c2ccco2)N3)n(-c2ccccc2)n1 (stereo unspecified) > 76.9 µM, COc1ccc(CNC(=O)CN(c2cccc(OC)c2)S(C)(=O)=O)cc1 > 76.9 µM, CCOC(=O)c1ccc(NC(=O)Nc2ccc(OC)c(OC)c2)cc1 > 76.9 µM, CCOC(=O)c1ccc(NCc2ccc3c(c2)OCO3)cc1 > 76.9 µM, CC1CCCCN1S(=O)(=O)c1ccc(C(=O)Nc2nnc(-c3ccccc3Cl)o2)cc1 (stereo unspecified) > 76.9 µM, Cc1ccc(-c2nnn(CC(=O)Nc3cccc4c3CCCC4)n2)o1 > 76.9 µM, CCCCOc1ccc(C(=O)O)cc1 > 76.9 µM, Cn1c(SCC(=O)OC2CCCCC2)nnc1-c1ccc(S(=O)(=O)N2CCCC2)cc1 > 76.9 µM, Cc1nc2cc(-c3cccc(Cl)c3)nn2c(N2CCN(C(=O)c3ccco3)CC2)c1C > 76.9 µM, Nc1cc(=O)[nH]c(SCc2nnc(-c3ccccc3)o2)n1 > 76.9 µM, CCC(=O)n1nc(-c2ccccc2)nc1NCc1ccccc1 > 76.9 µM, O=C(NC1CCCC1)c1c[nH]c2ccc(F)cc2c1=O > 76.9 µM, COc1ccc(OC)c(S(=O)(=O)N2CCC(C(=O)N3CCc4ccccc4C3)CC2)c1 > 76.9 µM, Cn1nnnc1SCc1cccc(CSc2nnnn2C)n1 > 76.9 µM, Cc1nc(NC(C)c2ccccc2)c2oc3ccccc3c2n1 (stereo unspecified) > 76.9 µM, COCCCn1c2nc3ccccc3nc2c2c(=O)n(Cc3ccc(Cl)cc3)c(C)nc21 > 76.9 µM, CCCCOc1cccc(C(=O)O)c1 > 76.9 µM, COc1cc(Cn2c(-c3nonc3N)nc3ccccc32)ccc1C > 76.9 µM, COC(=O)C1CCN(C(=O)CSc2nnc(-c3ccncc3)o2)CC1 > 76.9 µM, Nc1ncc(Br)cc1S(=O)(=O)NCCC(=O)N1CCN(c2ncccn2)CC1 > 76.9 µM, CCOc1ccc(N2C(=O)CC(n3nc(C)cc3C)C2=O)cc1 (stereo unspecified) > 76.9 µM, CCOC(=O)c1ccc(NC(=O)NCc2ccncc2)cc1 > 76.9 µM, CCN(CC)c1nc(C#N)nc(N(CC)CC)n1 > 76.9 µM, COCCNC(=O)Nc1ccc2c(c1)N(C)C(=O)CS2 > 76.9 µM, Cc1c(Cl)cccc1NC(=O)CCN1CCCCCC1 > 76.9 µM, O=c1c2cnn(-c3ccccc3Cl)c2ncn1Cc1cccnc1 > 76.9 µM, COc1ccc(Nc2nnc(Cc3ccccc3)c(=O)[nH]2)c(OC)c1 > 76.9 µM, COc1ccc(S(=O)(=O)N(CC(=O)NC2CC2)c2ccc(C)cc2)cc1OC > 76.9 µM, CC(CN1CCN(C)CC1)OC(=O)c1ccc(Cl)cc1 (stereo unspecified) > 76.9 µM, COc1ccc(Oc2coc3cc(OC(=O)N4CCOCC4)ccc3c2=O)cc1 > 76.9 µM, COc1ccccc1NC(=O)CCSc1nnnn1C > 76.9 µM, O=C(CCCNS(=O)(=O)c1cccs1)N1CCN(c2ccc(F)cc2)CC1 > 76.9 µM, OC1C=CSc2nc3ccccc3n21 (stereo unspecified) > 76.9 µM, CCCn1c(C)nc2c(c1=O)c1nc3ccccc3nc1n2CCc1ccccc1 > 76.9 µM, CC1CN(C(=O)c2cnn3c(C(F)F)cc(-c4ccccc4)nc23)CC(C)O1 (stereo unspecified) > 76.9 µM, O=C(Nc1cnn(Cc2ccc(F)cc2)c1)c1cc(-c2cccs2)on1 > 76.9 µM, CCOC(=O)CSc1nnc(CNC(=O)c2cc(OC)c(OC)c(OC)c2)n1C > 76.9 µM, NC(=O)c1c(C(F)(F)F)cc(-c2ccccc2)nc1NCCO > 76.9 µM, FC(F)(F)COc1nc(OCC(F)(F)F)nc(N2CCN(c3ccccc3)CC2)n1 > 76.9 µM, CC(C)CC(C(=O)Nn1cnnc1)N1C(=O)c2ccccc2C1=O (stereo unspecified) > 76.9 µM, COc1ccc(OC)c(NC(=O)c2[nH]c(C)c(C(C)=O)c2C)c1 > 76.9 µM, COc1cccc(C(C#N)N2CCCCC2)c1O (stereo unspecified) > 76.9 µM, O=C(C1CCCO1)N1CCN(c2ncccn2)CC1 (stereo unspecified) > 76.9 µM, CCN(CC)S(=O)(=O)c1cccc(-c2nnc(SCCCC(=O)c3ccc(F)cc3)o2)c1 > 76.9 µM, Cc1cc(C(=O)N2CCN(c3ncccn3)CC2)sc1-c1ccccc1 > 76.9 µM, COc1ccc(OC)c(-n2c(N)c(C(=O)NCC3CCCO3)c3nc4ccccc4nc32)c1 (stereo unspecified) > 76.9 µM, Cc1ccc(C2(C)NC(=O)N(CC(=O)NC(=O)NC3CCCC3)C2=O)cc1 (stereo unspecified) > 76.9 µM, Cc1ccc(C2NC(=O)NC(O)(C(F)(F)F)C2C(=O)c2ccccc2)o1 (stereo unspecified) > 76.9 µM, COCCCNC(CC(=O)Nc1ccc(N(C)C)cc1)C(=O)O (stereo unspecified) > 76.9 µM, CCn1c(SCC(=O)c2ccc(Cl)s2)nnc1-c1cccs1 > 76.9 µM, CCc1nc(SCC(=O)N2CCN(C(=O)c3ccco3)CC2)c2c3c(sc2n1)CCCC3 > 76.9 µM, CC(c1ccccc1)n1cc(C(=O)NCc2cccnc2)nn1 (stereo unspecified) > 76.9 µM, CCOc1cc(C(=O)NCC(C)CN(C)C)cc(OCC)c1OCC (stereo unspecified) > 76.9 µM, COc1ccc(-c2ccc(-c3noc(C(C)C)n3)c(OC)n2)cc1 > 76.9 µM, CCOC(=O)C1CCN(S(=O)(=O)c2cccc(-c3cn4ccccc4n3)c2)CC1 > 76.9 µM, CCC(=O)Nc1c(C)c(CC)nc2ccccc12 > 76.9 µM, Nc1nc(CSc2ncn(-c3ccccc3)n2)cs1 > 76.9 µM, O=C(Nc1ccc2c(c1)OCO2)c1ccc(S(=O)(=O)NCC2CCCO2)cc1 (stereo unspecified) > 76.9 µM, Cc1ccc(S(=O)(=O)N2CCCC2C(=O)OCc2ccco2)cc1 (stereo unspecified) > 76.9 µM, c1ccc(-c2ccccc2OCCn2cncn2)cc1 > 76.9 µM, COc1cc(CC(=O)Nc2ncc(C)s2)cc(OC)c1OC > 76.9 µM, Cc1ccc2nc(-c3cccc(NC(=O)c4ccc5c(c4)OCCO5)c3)oc2c1, CCOC(=O)CN1C(=O)C(CC)Oc2ccc(Cl)cc21 (stereo unspecified) > 76.9 µM, Cc1cc(NC(=O)CSc2nc3ccccc3c(=O)n2CCCC(=O)NCc2ccco2)n[nH]1 > 76.9 µM, Cc1ccc(CNC(=O)C2CCN(S(=O)(=O)c3cccs3)CC2)o1 > 76.9 µM, CCc1ccccc1NC(=O)CSc1nnc(-c2ccco2)n1N > 76.9 µM, COc1cccc(OC)c1C(=O)N1CCN(Cc2ccc3c(c2)OCO3)CC1 > 76.9 µM, COc1ccc(S(=O)(=O)Nc2cc(C)ccn2)cc1OC > 76.9 µM, CC(NC(=O)Nc1nnc(C(F)(F)F)s1)N1C(=O)C2C3C=CC(C3)C2C1=O (stereo unspecified) > 76.9 µM, O=S(=O)(c1ccc(Sc2nnc3ccccn23)nc1)N1CCOCC1 > 76.9 µM, CS(=O)(=O)N1CCN(c2ccccc2NC(=O)Cc2ccccc2)CC1 > 76.9 µM, CN(C1CCS(=O)(=O)C1)S(=O)(=O)c1ccc(C2CCCCC2)cc1 (stereo unspecified) > 76.9 µM, CCCS(=O)(=O)N1CCC(C(=O)NCCCOC)CC1 > 76.9 µM, CCOC(=O)/C(C#N)=C(\N)C(C)C(=O)Nc1ccccn1 (stereo unspecified) > 76.9 µM
